Publication PMC3787956, “Soluble Human Leukocyte Antigen-G5 Activates Extracellular Signal-Regulated Protein Kinase Signaling and Stimulates Trophoblast Invasion” (PLoS ONE, 2013)

Molecular target: leukocyte immunoglobulin-like receptor subfamily B1 (LILRB1) (human (endogenous in JAr and JEG-3), UniProt Q8NHL6 24-650)
Experiment: cell-based or functional assay

UniProt Q8NHL6, sequence (Q8NHL6 24-650): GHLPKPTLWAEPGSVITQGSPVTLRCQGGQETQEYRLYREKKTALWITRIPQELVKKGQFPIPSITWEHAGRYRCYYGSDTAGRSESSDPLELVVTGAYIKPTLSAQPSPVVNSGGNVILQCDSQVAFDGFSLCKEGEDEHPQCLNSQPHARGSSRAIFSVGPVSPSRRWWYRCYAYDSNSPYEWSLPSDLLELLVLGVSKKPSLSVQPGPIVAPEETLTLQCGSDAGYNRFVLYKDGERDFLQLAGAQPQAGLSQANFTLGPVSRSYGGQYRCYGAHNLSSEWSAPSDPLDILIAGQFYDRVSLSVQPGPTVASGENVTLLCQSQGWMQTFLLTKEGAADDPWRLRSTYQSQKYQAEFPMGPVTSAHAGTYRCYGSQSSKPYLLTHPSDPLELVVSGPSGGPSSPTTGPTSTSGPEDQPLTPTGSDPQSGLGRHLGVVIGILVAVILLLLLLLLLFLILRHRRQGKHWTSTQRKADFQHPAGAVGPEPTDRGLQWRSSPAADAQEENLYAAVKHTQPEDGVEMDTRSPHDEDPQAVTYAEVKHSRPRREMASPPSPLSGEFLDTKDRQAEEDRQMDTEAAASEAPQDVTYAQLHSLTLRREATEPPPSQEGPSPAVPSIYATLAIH

B1: Recombinant HLA-G5 protein (soluble human leukocyte antigen-G5) (ligand)
MHC heavy: not shown
modifications: labeled with Alexa Fluor 488 (microscale protein labeling kit)
- invasiveness of JEG-3 cells in the Matrigel trans-well invasion assay with HLA-G5, percent relative to untreated control, 236.2% without antibody; value with anti-LILRB1 antibody: 96.2%
